# Test results taken from publication PMC4742622.
# By UniProt entry, the sequences of proteins in these tests, tags left out. Where a name states a change or a piece, a line headed by the entry shows the natural chain unless it says otherwise.
# UniProt Q01196: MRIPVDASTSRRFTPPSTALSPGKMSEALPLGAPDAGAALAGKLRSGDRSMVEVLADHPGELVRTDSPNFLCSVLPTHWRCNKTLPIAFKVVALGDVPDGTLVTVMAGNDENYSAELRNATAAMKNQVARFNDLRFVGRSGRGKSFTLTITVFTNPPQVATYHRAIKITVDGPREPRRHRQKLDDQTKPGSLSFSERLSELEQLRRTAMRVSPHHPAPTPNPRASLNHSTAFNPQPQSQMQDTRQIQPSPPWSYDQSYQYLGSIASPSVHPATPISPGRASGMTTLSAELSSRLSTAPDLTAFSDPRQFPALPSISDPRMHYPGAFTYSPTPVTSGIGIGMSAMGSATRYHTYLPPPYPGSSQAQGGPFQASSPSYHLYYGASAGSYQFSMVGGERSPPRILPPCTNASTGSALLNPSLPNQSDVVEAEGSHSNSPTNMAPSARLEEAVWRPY
# UniProt P40763: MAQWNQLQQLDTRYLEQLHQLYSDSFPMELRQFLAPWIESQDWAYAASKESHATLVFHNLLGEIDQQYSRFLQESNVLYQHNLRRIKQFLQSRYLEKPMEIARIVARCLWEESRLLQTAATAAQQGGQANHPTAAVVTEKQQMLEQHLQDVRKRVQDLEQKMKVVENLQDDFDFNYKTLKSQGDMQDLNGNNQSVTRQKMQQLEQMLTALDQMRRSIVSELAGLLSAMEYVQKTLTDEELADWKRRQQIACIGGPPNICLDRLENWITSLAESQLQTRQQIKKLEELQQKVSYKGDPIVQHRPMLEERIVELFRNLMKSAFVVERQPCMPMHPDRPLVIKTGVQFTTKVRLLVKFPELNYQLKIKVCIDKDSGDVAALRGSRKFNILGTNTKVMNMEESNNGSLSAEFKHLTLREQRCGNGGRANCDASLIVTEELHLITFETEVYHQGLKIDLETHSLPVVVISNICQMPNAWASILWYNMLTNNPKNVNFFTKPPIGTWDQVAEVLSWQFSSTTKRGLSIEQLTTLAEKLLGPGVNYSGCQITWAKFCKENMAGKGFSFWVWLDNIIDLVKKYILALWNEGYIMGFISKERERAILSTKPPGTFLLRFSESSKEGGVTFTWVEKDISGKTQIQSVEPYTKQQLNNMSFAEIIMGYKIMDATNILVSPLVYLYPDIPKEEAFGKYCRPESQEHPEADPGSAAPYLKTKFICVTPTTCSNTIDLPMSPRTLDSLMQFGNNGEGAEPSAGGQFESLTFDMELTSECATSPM
# Results are given in words; binding and its absence hold for the method and conditions named. Binding seen in cells or lysates may run through a third protein. Some binding calls cover weakened binding; strength is not graded here.
# Biological target: EGFP-tagged RUNX1 (UniProt Q01196)
# Test: co-IP; GFP beads on lysates of cells overexpressing the constructs ('GFP-pulldown assay'), western blot; HEK293T stated for Figure 5a and 5b, cells not stated for 5e, 5f, 5h
row,binding,Substance
1,binds,STAT3^1-514 (from UniProt P40763 1-514) (domain or fragment)
2,binds,STAT3^1-600 (from UniProt P40763 1-600) (domain or fragment)
3,binds,endogenous STAT3 (HEK293T) (from UniProt P40763 1-770)
4,no binding,STAT3^1-309 (from UniProt P40763 1-309) (domain or fragment)

# Biological target: GFP-tagged FLAGHA-STAT3 (UniProt P40763)
# Test: as above
row,binding,Substance
1,binds,RUNX1^R174Q (from UniProt Q01196 1-453)
2,binds,RUNX1 Runt domain alone (from UniProt Q01196 50-178) (domain or fragment)
3,binds,"RUNX1 (overexpressed, full-length) (from UniProt Q01196 1-453)"
4,binds,RUNX1^Y260X (from UniProt Q01196 1-259) (domain or fragment)

# Biological target: endogenous STAT3 (Jurkat) (human (endogenous in Jurkat)) (UniProt P40763)
# Test: co-IP; endogenous proteins, Jurkat cell lysates, immunoprecipitated with the indicated antibodies, western blot
row,binding,Substance
1,binds,endogenous RUNX1 (Jurkat) (from UniProt Q01196 1-453)
